Measured values reported in the supplement of paper PMC12217912.
The list shows a part of the results. The full chains were built here from the parent and the listed change. Values near 0.05 are background.

B1: TEV protease; numbered along this chain (parent)
chain: MGESLFKGPRDYNPISSSICHLTNESDGHTTSLYGIGFGPFIITNKHLFRRNNGTLVVQSLHGVFKVKDTTTLQQHLVDGRDMIIIRMPKDFPPFPQKLKFREPQREERICLVTTNFQTKSMSSMVSDTSCTFPSGDGIFWKHWIQTKDGQCGSPLVSTRDGFIVGIHSASNFTNTNNYFTSVPKNFMELLTNQEAQQWVSGWRLNADSVLWGGHKVFMVKPEEPFQPVKEATQL

Variants of: B1
Test: raw area under fraction-flipped curve 0-4 h after induction (AUC4h, not background-subtracted), DNA-recorder readout of cleavage of the substrate (dimensionless); higher = more cleavage of the substrate by the protease variant
Conditions: temperature: 34 °C; time window: 0-4 h after rhamnose induction
Experimental: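 In vivo DNA recorder in E. coli TOP10(DE3) ΔrhaA at 34 °C. Each TEVp single-site mutant (parent TEVp 0) is paired with a single-site variant of the 7-mer TEVs (canonical ENLYFQ|S). The substrate sits between flexible linkers in a Bxb1-sfGFP-TEVs-SsrA fusion, so cleavage stabilises Bxb1 and speeds flipping of a recombination array, read by NGS. The value is the raw area under the fraction-flipped curve over 0-4 h after rhamnose induction (AUC4h), with ≥20 reads per time point. It is not background-subtracted; inactive controls average about 0.047.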
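Also: Bxb1 expression induced with 0.2% (w/v) L-rhamnose at OD600 near 0.5, cultures sampled hourly, flipped fraction per protease–substrate barcode pair counted by paired-end Illumina sequencing.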

Row | Variant | area with substrate ENLYFQA | area with substrate ENLYFQC | area with substrate ENLYFQG | area with substrate ENLYFQH | area with substrate ENLYFQK | area with substrate ENLYFQL | area with substrate ENLYFQP | area with substrate ENLYFQQ | area with substrate ENLYFQR | area with substrate ENLYFQS | area with substrate ENLYFQT | area with substrate ENLYFQW | area with substrate ENLYFQY | area with substrate ENLYFQM | area with substrate ENLYFQN | area with substrate ENLYFQV | area with substrate ENLYFQD | area with substrate ENLYFQF | area with substrate ENLYFQI | area with substrate ENLYFQE
1 | MGESLFKGPRDYNPISSSICHLTNESDGHTTSLYGIGFGPFIITNKHLFRRNNGTLVVQSLHGVFKVKDTTTLQQHLVDGRDMIIIRMPKDFPPFPQKLKFREPQREERICLVTTNFQTKSMSSMVSDTSCTFPSGDGIFWKHWIQTKEGQCGSPLVSTRDGFIVGIHSASNFTNTNNYFTSVPKNFMELLTNQEAQQWVSGWRLNADSVLWGGHKVFMVKPEEPFQPVKEATQL [D149E] | 0.102 | 0.105 | 0.0888 | 0.0602 | 0.0597 | 0.0657 | 0.0586 | 0.0612 | 0.0498 | 0.0975 | 0.0548 | 0.0649 | 0.041 |  |  |  |  |  |  | 
2 | MGESLFKGPRDYNPISSSICHLTNESDGHTTSLYGIGFGPFIITNKHLFRRNNGTLVVQSLHGVFKVKDTTTLQQHLVDGRDMIIIRMPKDFPPFPQKLKFREPQREERICLVTTNFQTKSMSSMVSDTSCTFPSGDGIFWKHWIQTKWGQCGSPLVSTRDGFIVGIHSASNFTNTNNYFTSVPKNFMELLTNQEAQQWVSGWRLNADSVLWGGHKVFMVKPEEPFQPVKEATQL [D149W] | 0.0725 | 0.103 |  | 0.0704 | 0.0483 | 0.0652 |  |  | 0.0301 | 0.0752 | 0.0568 |  |  | 0.0659 | 0.0561 | 0.0614 |  |  |  | 
3 | MGESLFKGPRDYNPISSSICHLTNESDGHTTSLYGIGFGPFIITNKHLFRRNNGTLVVQSLHGVFKVKDTTTLQQHLVDGRDMIIIRMPKDFPPFPQKLKFREPQREERICLVTTNFQTKSMSSMVSDTSCTFPSGDGIFWKHWIQTKDGQCGSPLVSTRDEFIVGIHSASNFTNTNNYFTSVPKNFMELLTNQEAQQWVSGWRLNADSVLWGGHKVFMVKPEEPFQPVKEATQL [G162E] | 0.0902 | 0.106 |  |  |  | 0.0787 | 0.0551 |  | 0.054 | 0.0921 | 0.0622 | 0.0594 |  | 0.0639 |  |  | 0.0484 | 0.0792 | 0.0613 | 
4 | MGESLFKGPRDYNPISSSICHLTNESDGHTTSLYGIGFGPFIITNKHLFRRNNGTLVVQSLHGVFKVKDTTTLQQHLVDGRDMIIIRMPKDFPPFPQKLKFREPQREERICLVTTNFQTKSMSSMVSDTSCTFPSGDGIFWKHWIQTKDGQCGSPPVSTRDGFIVGIHSASNFTNTNNYFTSVPKNFMELLTNQEAQQWVSGWRLNADSVLWGGHKVFMVKPEEPFQPVKEATQL [L156P] | 0.0495 | 0.0567 | 0.058 |  | 0.0665 | 0.0599 |  |  | 0.0253 | 0.0546 | 0.0449 | 0.0534 |  | 0.0483 |  | 0.0492 | 0.0486 |  | 0.0464 | 0.0531
5 | MGESLFKGPRDYNPISSSICHLTNESDGHTTSLYGIGFGPFIITNKHLFRRNNGTLVVQSLHGVFKVKDTTTLQQHLVDGRDMIIIRMPKDFPPFPQKLKFREPQREERICLVTTNFQTKSMSSMVSDTSCTFPSGDGIFWKHWIQTKDGQCGSPFVSTRDGFIVGIHSASNFTNTNNYFTSVPKNFMELLTNQEAQQWVSGWRLNADSVLWGGHKVFMVKPEEPFQPVKEATQL [L156F] | 0.087 | 0.0581 | 0.0741 |  | 0.0471 | 0.0607 |  |  | 0.0569 | 0.0649 | 0.0724 | 0.0577 |  | 0.0697 | 0.0468 |  |  |  |  | 
6 | MGESLFKGPRDYNPISSSICHLTNESDGHTTSLYGIGFGPFIITNKHLFRRNNGTLVVQSLHGVFKVKDTTTLQQHLVDGRDMIIIRMPKDFPPFPQKLKFREPQREERICLVTTNFQTKSMSSMVSDTSCTFPSGDGIFWKHWIQTKDGQCGSPAVSTRDGFIVGIHSASNFTNTNNYFTSVPKNFMELLTNQEAQQWVSGWRLNADSVLWGGHKVFMVKPEEPFQPVKEATQL [L156A] | 0.11 | 0.102 | 0.0887 | 0.0868 | 0.0618 | 0.044 |  |  | 0.0682 | 0.092 | 0.0613 | 0.0842 | 0.0725 |  | 0.0717 | 0.0884 |  |  |  | 
7 | MGESLFKGPRDYNPISSSICHLTNESDGHTTSLYGIGFGPFIITNKHLFRRNNGTLVVQSLHGVFKVKDTTTLQQHLVDGRDMIIIRMPKDFPPFPQKLKFREPQREERICLVTTNFQTKSMSSMVSDTSCTFPSGDGIFWKHWIQTKDGQCGSPLVSTRLGFIVGIHSASNFTNTNNYFTSVPKNFMELLTNQEAQQWVSGWRLNADSVLWGGHKVFMVKPEEPFQPVKEATQL [D161L] | 0.0678 | 0.0639 | 0.056 | 0.0665 | 0.0547 | 0.0608 | 0.0453 | 0.0421 | 0.0579 | 0.058 | 0.0413 | 0.0503 | 0.0485 | 0.0504 | 0.0702 | 0.0515 | 0.0415 | 0.0357 | 0.0539 | 
8 | MGESLFKGPRDYNPISSSICHLTNESDGHTTSLYGIGFGPFIITNKHLFRRNNGTLVVQSLHGVFKVKDTTTLQQHLVDGRDMIIIRMPKDFPPFPQKLKFREPQREERICLVTTNFQTKSMSSMVSDTSCTFPSGDGIFWKHWIQTKDGQCGSPLVSTRNGFIVGIHSASNFTNTNNYFTSVPKNFMELLTNQEAQQWVSGWRLNADSVLWGGHKVFMVKPEEPFQPVKEATQL [D161N] | 0.0829 | 0.0767 | 0.0772 | 0.123 | 0.0608 | 0.0526 |  |  | 0.0566 | 0.0757 | 0.0051 | 0.07 | 0.0577 | 0.0676 | 0.0993 | 0.0528 | 0.0504 |  | 0.0292 | 
